Assay results from PubChem BioAssay AID1476 (National Center for Advancing Translational Sciences (NCATS), 2009).
Among all 200,000 compounds or so, about 4,500 (2.2%) were called active. Inconclusive results, whose numbers are uncertain, are shown with a selection of clear calls. Calls come from the whole dose curve; as a rule, active = well fitted inhibition curve with a large enough effect; inconclusive = small, poorly fitted or top-dose-only effect, or effect the other way; inactive = flat fitted curve, though single readings scatter. Where the call is inconclusive, the potency comes from a doubtful curve fit.

target: Cruzipain (Trypanosoma cruzi) (UniProt P25779); test: qHTS Assay for Promiscuous and Specific Inhibitors of Cruzain (without detergent); settings: purified cruzain, Z-FR-AMC fluorescence, no detergent; note: nearly all actives have a fitted effect of over 40% in size;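 for max response, negative = inhibition: plate controls were enzyme without inhibitor for no effect and buffer without enzyme for full effect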
Method in brief: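 Purified cruzain at 1.5 nM, pre-incubated 15 min with compound at room temperature in 100 mM sodium acetate pH 5.5, 5 mM DTT, 0.00005% Triton X-100. Reaction started with 2 uM Z-FR-AMC; AMC fluorescence increase over 60 s gives rate.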
Potency is the fitted concentration of half-maximal effect; tags give direction and shape of the fitted curve.

Sequence of UniProt P25779 (P25779 whole entry, looked up): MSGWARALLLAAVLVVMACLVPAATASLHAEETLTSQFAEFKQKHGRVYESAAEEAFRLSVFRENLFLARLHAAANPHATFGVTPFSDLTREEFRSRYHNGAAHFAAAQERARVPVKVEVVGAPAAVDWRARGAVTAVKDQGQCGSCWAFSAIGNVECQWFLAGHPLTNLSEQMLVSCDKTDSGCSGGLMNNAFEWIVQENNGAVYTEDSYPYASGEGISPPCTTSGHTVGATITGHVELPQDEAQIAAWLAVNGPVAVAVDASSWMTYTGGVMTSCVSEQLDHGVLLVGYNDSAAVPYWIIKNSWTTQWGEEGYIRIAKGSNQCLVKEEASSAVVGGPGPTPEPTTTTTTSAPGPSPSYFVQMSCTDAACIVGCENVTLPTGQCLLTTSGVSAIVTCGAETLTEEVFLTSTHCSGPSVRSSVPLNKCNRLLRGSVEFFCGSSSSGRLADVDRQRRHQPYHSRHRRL

Which max response, negative = inhibition does the source give for CCCCOc1ccc(C(=O)NCC2(N3CCN(C)CC3)CCCCC2)cc1 here?
The max response, negative = inhibition was inactive: 2.67%.

For CCCCCCN(C(=O)CCCCCN1C(=O)NC(C2CC2)C(C(=O)OCc2ccccc2)=C1C)C(C(=O)NCCCC)c1ccc(OCC(=O)OC)c(C(=O)OC)c1 (stereo unspecified), which Potency is on record?
The Potency was inconclusive: 15.8 µM [activator, partial curve].

With N#Cc1cccc(-c2nc3cnc(N4CCOCC4)nc3n(C3CC3)c2=O)c1 as the molecule, how does the max response, negative = inhibition read?
The max response, negative = inhibition was inactive: 6.66%.

How did the max response, negative = inhibition turn out when CCCCCn1c(NCc2ccccc2OC)nc2ccccc21 was run?
The max response, negative = inhibition was inactive: -0.0326%.

Which Potency does the source give for CC1(C)Oc2ccc3ccc(=O)oc3c2/C(=C/Nc2ccccn2)C1=O here?
Its Potency is inconclusive: 39.8 µM [activator, single point].

How did the Potency turn out when CCC(=O)N1CCc2cc(Br)cc(S(=O)(=O)N3CCCC(C(=O)NCc4cccc(OC)c4)C3)c21 (stereo unspecified) was run?
The Potency was inconclusive: 39.8 µM [activator, single point].

With O=C(NC1(C(=O)NC2CCCC2)CCCCC1)c1ccc2c(c1)OCO2 as the molecule, how does the Potency read?
Its Potency is inconclusive: 31.6 µM [activator, single point].

CC1CN(C2CCN(C(=O)c3ccccc3)CC2)CC(C)O1 (stereo unspecified) was tested. Which max response, negative = inhibition did it give?
The max response, negative = inhibition was inactive: 4.44%.

For COc1ccc(C(=O)COC(=O)c2cc(-c3ccccc3)nc3c(C)cccc23)cc1, which max response, negative = inhibition is on record?
The max response, negative = inhibition was inactive: 2.46%.

How did the max response, negative = inhibition turn out when CC1(C)[C@@H](CC(=O)O)CCC[C@@H]1CC(=O)O was run?
The max response, negative = inhibition was inactive: 1.93%.

How did the max response, negative = inhibition turn out when COc1cccc(CNC(=O)C2Cc3cc(S(=O)(=O)N4CCCCCC4)ccc3N2C(C)=O)c1 (stereo unspecified) was run?
Its max response, negative = inhibition is inactive: 2.2%.

Which Potency does the source give for COc1cc(-c2nnc(COc3ccc(Cl)cc3C)o2)cc(OC)c1OC here?
The Potency was inconclusive: 31.6 µM [activator, single point].

Which max response, negative = inhibition does the source give for COc1ccc(CC(=O)NCc2ccc3c(c2)CCN3C(C)=O)cc1OC here?
Its max response, negative = inhibition is inactive: 18.2%.

With O=C(NCCc1ccccc1)c1ccc2nc(-c3ccco3)c(-c3ccco3)nc2c1 as the molecule, how does the Potency read?
The Potency was inconclusive: 5.01 µM [inhibitor, partial curve].

Which Potency does the source give for CCOc1ccccc1N1CC(c2nc3ccccc3n2CCCCOc2ccccc2)CC1=O (stereo unspecified) here?
The Potency was inconclusive: 25.1 µM [activator, single point].

COc1ccc(C2c3cc(OC)c(OC)cc3CC(=O)N2c2cccc(C#N)c2)cc1 (stereo unspecified) was tested. Which Potency did it give?
Its Potency is inconclusive: 39.8 µM [activator, single point].

Which max response, negative = inhibition does the source give for COc1ccccc1C1=Nn2c(nc3sc(C(=O)Nc4ccccc4Cl)c(C)c3c2=O)SC1 here?
The max response, negative = inhibition was inactive: -0.936%.

Cc1ccc(C)c(C(=O)N2CCC(c3nc4c(nnn4Cc4ccccc4)c(=O)[nH]3)CC2)c1 was tested. Which Potency did it give?
Its Potency is inconclusive: 31.6 µM [activator, partial curve].

Which Potency does the source give for CCOCCCn1c(SCC(=O)Nc2ccccc2OC)nc2c(oc3ccccc32)c1=O here?
Its Potency is inconclusive: 39.8 µM [activator, single point].

CC1Cc2cc(S(=O)(=O)CCC(=O)Nc3ccc(OC(F)(F)F)cc3)ccc2N1C(=O)C1CC1 (stereo unspecified) was tested. Which Potency did it give?
Its Potency is inconclusive: 31.6 µM [activator, single point].

For CCOc1ccc(OCC)c(NC(=O)CSc2nc3c(c(=O)n(C)c(=O)n3C)n2CC)c1, which Potency is on record?
Its Potency is inconclusive: 25.1 µM [activator, single point].

How did the Potency turn out when CC(=O)c1cc2c(cc1N/C(=N/S(=O)(=O)c1ccc(C)cc1)c1ccc(Cl)cc1)OCO2 was run?
The Potency was inconclusive: 39.8 µM [inhibitor, single point].

How did the Potency turn out when CCOc1ccc(NC(=O)c2oc3ccccc3c2NC(=O)C(C)Oc2ccccc2)cc1 (stereo unspecified) was run?
The Potency was active: 31.6 µM.

How did the max response, negative = inhibition turn out when Cc1ccc(C)c(CN2C(=O)c3ccccc3S(=O)(=O)c3ccc(C(=O)N4CCN(Cc5ccccc5)CC4)cc32)c1 was run?
The max response, negative = inhibition was inactive: -9.32%.

O=C(COc1ccc(Cl)cc1)Nc1nnc(-c2ccc3c(c2)CCCC3)o1 was tested. Which Potency did it give?
The Potency was active: 7.94 µM.

With COc1ccc(-c2noc(C3CC(=O)N(c4ccc5c(c4)OCCO5)C3)n2)c(OC)c1 (stereo unspecified) as the molecule, how does the max response, negative = inhibition read?
The max response, negative = inhibition was inactive: -3.27%.

Which Potency does the source give for O=C1CC(N2CCN(c3nc4ccccc4s3)CC2)C(=O)N1Cc1cccs1 (stereo unspecified) here?
The Potency was inconclusive: 31.6 µM [activator, single point].

For COCC(=O)N1CCC2(CCN(Cc3ccccc3)CC2)CC1, which max response, negative = inhibition is on record?
The max response, negative = inhibition was inactive: -0.0051%.

With CCOc1ccc(N(C(=O)Cn2nnc3ccccc32)C(C(=O)NC(C)(C)CC)c2cccn2C)cc1 (stereo unspecified) as the molecule, how does the Potency read?
The Potency was inconclusive: 15.8 µM [activator, partial curve, poor fit].

Which max response, negative = inhibition does the source give for O=C(NC1CC(=O)N(c2ccc(Cl)cc2)C1)C1CCCCC1 (stereo unspecified) here?
Its max response, negative = inhibition is inactive: -4.58%.

Which max response, negative = inhibition does the source give for CCOc1ccc(NC(=O)CSc2nc3ccccc3c(=O)n2CCC(=O)NC2CCCCC2)cc1 here?
The max response, negative = inhibition was inactive: -10.4%.

O=C(COC(=O)c1cc(-c2cccs2)nc2ccccc12)c1ccc(Cl)cc1 was tested. Which Potency did it give?
The Potency was inconclusive: 6.31 µM [inhibitor, single point].

How did the max response, negative = inhibition turn out when CCOc1ccc(Nc2oc(/C=C/c3cc(OC)c(OC)c(OC)c3)nc2C#N)cc1 was run?
Its max response, negative = inhibition is inactive: 12.3%.

How did the max response, negative = inhibition turn out when Cc1ccc(NC(=O)CN2C(=O)C(C)(C)c3cc(S(=O)(=O)N4CCCCC4)ccc32)c(Br)c1 was run?
Its max response, negative = inhibition is inactive: 3.13%.

COC(=O)Oc1ccccc1C(=O)O was tested. Which max response, negative = inhibition did it give?
Its max response, negative = inhibition is inactive: 4.82%.

Which Potency does the source give for CCc1ccc(N=c2c([N+](=O)[O-])nn(-c3ccccc3)n2O)cc1 here?
The Potency was inconclusive: 20 µM [inhibitor, partial curve, poor fit].

With CC1CCN(C(=O)c2ccc(NC(=O)c3nsc4ccccc34)cc2)CC1 as the molecule, how does the max response, negative = inhibition read?
Its max response, negative = inhibition is inactive: -15.7%.

For Cc1cccc(N2CCN(S(=O)(=O)c3c(C)nc4scc(C)n4c3=O)CC2C)c1 (stereo unspecified), which Potency is on record?
The Potency was inconclusive: 39.8 µM [activator, single point].

For CN(C)c1ccc(-c2nnn(CC(=O)N3c4ccccc4CCc4ccccc43)n2)cc1, which Potency is on record?
The Potency was active: 31.6 µM.

For COC(=O)c1c(NC(=S)Nc2ccc(CC(=O)O)cc2)sc(C)c1C, which max response, negative = inhibition is on record?
Its max response, negative = inhibition is inactive: 7.81%.

How did the Potency turn out when CC1=C(C(=O)OC(C)C)C(/C=C/c2ccccc2)NC(=O)N1 (stereo unspecified) was run?
Its Potency is inconclusive: 31.6 µM [inhibitor, single point].

COC(=O)c1cnn(-c2nc3c(C)cccc3s2)c1C was tested. Which Potency did it give?
Its Potency is inconclusive: 39.8 µM [inhibitor, single point].

How did the Potency turn out when COc1ccc2cc(/C=N/NC(=O)c3ccc(CN(c4ccc(C)c(C)c4)S(C)(=O)=O)cc3)c(Cl)nc2c1 was run?
Its Potency is inconclusive: 15.8 µM [inhibitor, partial curve, poor fit].

Which max response, negative = inhibition does the source give for COc1ccc(NC(=O)c2oc3ccccc3c2NC(=O)Cc2ccc(F)cc2)c(OC)c1 here?
Its max response, negative = inhibition is inactive: 2.87%.

For CCOC(=O)C(CC)Sc1nnc(COc2ccc(C)cc2)n1-c1ccccc1 (stereo unspecified), which Potency is on record?
The Potency was inconclusive: 20 µM [activator, single point].

For COc1ccc(Cl)cc1-n1c(CCC(=O)O)ccc1-c1ccc(C)cc1, which Potency is on record?
Its Potency is inconclusive: 39.8 µM [activator, single point].

Which max response, negative = inhibition does the source give for O=C(CC1N=C2c3ccccc3N=C(SCc3ccccc3Cl)N2C1=O)NC1CCCCC1 (stereo unspecified) here?
Its max response, negative = inhibition is inactive: 1.93%.

With O=C(C1CCN(c2nnc(-n3cccc3)s2)CC1)N1CCOCC1 as the molecule, how does the Potency read?
The Potency was inconclusive: 1 µM [inhibitor, full curve].

How did the Potency turn out when Cc1cccc(NC(=O)Cn2c(=O)n(Cc3ccc4c(c3)OCO4)c(=O)c3ccccc32)c1 was run?
The Potency was active: 20 µM.

COc1ccccc1NS(=O)(=O)c1cc(N/C(=N\S(=O)(=O)c2ccccc2)c2ccc(F)cc2)ccc1Cl was tested. Which Potency did it give?
Its Potency is inconclusive: 31.6 µM [inhibitor, single point].

Which max response, negative = inhibition does the source give for Cc1c(Cl)cccc1N1CC(c2nc3ccccc3n2Cc2ccccc2F)CC1=O (stereo unspecified) here?
Its max response, negative = inhibition is inactive: 25.2%.

CCCCCSc1nnc2c(n1)OC(c1ccc(C)s1)N(C(C)=O)c1ccccc1-2 (stereo unspecified) was tested. Which max response, negative = inhibition did it give?
The max response, negative = inhibition was inactive: 27.5%.

How did the Potency turn out when O=C(NC1CCCCC1)c1ccccc1NC(=O)C1CC(=O)N(c2ccc(Cl)cc2)C1 (stereo unspecified) was run?
Its Potency is inconclusive: 15.8 µM [inhibitor, single point].

With Cc1oc(-c2ccc(Cl)cc2)nc1CN1C(=O)CN=C(c2ccccc2)c2ccccc21 as the molecule, how does the Potency read?
Its Potency is inconclusive: 39.8 µM [activator, single point].

Which Potency does the source give for CCCC12C(=O)C(C)(C(c3ccccc3)=C1c1ccccc1)C1C(=O)N(c3ccc(C)cc3)C(=O)C12 (stereo unspecified) here?
Its Potency is active: 20 µM.

COC(=O)c1ccccc1NC(=O)c1nc(SCc2ccccc2C)ncc1Cl was tested. Which max response, negative = inhibition did it give?
Its max response, negative = inhibition is inactive: 3.12%.

O=C(N/N=C/c1ccccc1OC(=O)c1ccc2c(c1)OCO2)c1ccccc1 was tested. Which Potency did it give?
The Potency was inconclusive: 25.1 µM [inhibitor, single point].

For Cc1cc(C)c(S(=O)(=O)NCc2ccc3c(c2)cc(C)n3C)c(C)c1, which Potency is on record?
Its Potency is inconclusive: 5.01 µM [inhibitor, full curve, poor fit].

How did the Potency turn out when O=[N+]([O-])c1cccc(S(=O)(=O)c2ccc(N3CCCCC3)c([N+](=O)[O-])c2)c1 was run?
The Potency was inconclusive: 39.8 µM [inhibitor, single point].

For COc1cccc(NC(=O)Cn2c(=O)n(Cc3ccccc3)c(=O)c3c4c(sc32)CN(C(C)=O)CC4)c1, which Potency is on record?
The Potency was inconclusive: 12.6 µM [activator, partial curve].

For CN(C)C(=O)c1ccc(S(=O)(=O)NCc2ccccc2Cl)s1, which max response, negative = inhibition is on record?
The max response, negative = inhibition was inactive: -3.42%.

Which max response, negative = inhibition does the source give for Cc1ccc(NC(=O)Nc2nnc(N3CCCCC3)s2)c(C)c1 here?
Its max response, negative = inhibition is inactive: 16.8%.

For CC(C)c1ccc(C(=O)N/N=C/c2cccc(Cl)c2Cl)cc1, which Potency is on record?
The Potency was inconclusive: 39.8 µM [inhibitor, single point].

With Cc1onc(-c2ccccc2)c1C(=O)Nc1cccc2nsnc12 as the molecule, how does the Potency read?
Its Potency is inconclusive: 39.8 µM [inhibitor, single point].

With CCn1c(=O)c2cc(C(=O)N(C)c3cc(C)ccc3C)sc2c2ccccc21 as the molecule, how does the max response, negative = inhibition read?
The max response, negative = inhibition was inactive: -4.16%.

O=C(O)c1cccc(S(=O)(=O)Nc2ccccc2Cl)c1 was tested. Which Potency did it give?
The Potency was inconclusive: 39.8 µM [activator, single point].
